# The campaign covered roughly 420,000 compounds. About 50,000 (12%) were called active. The inconclusive results got no clear call from the source; some entries with a clear call stand among them for comparison. The call rests on the fitted dose curve; in most records, active means well fitted inhibition curve with a large enough effect; inconclusive means small, poorly fitted or top-dose-only effect; inactive means flat fitted curve, though single readings scatter. Potencies of inconclusive entries are left out as doubtful fits.
# Assay: qHTS for Inhibitors of human tyrosyl-DNA phosphodiesterase 1 (TDP1): qHTS in cells in presence of CPT; further: nearly all actives have a fitted effect of over 55% in size
# Conditions: chicken DT40 Tdp1-/-;hTDP1 cells + 20 nM CPT, ATP luminescence, 48 h; activity change, negative = growth inhibition: at 46.2 µM (top of the series) unless noted
# In short: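 Chicken DT40 Tdp1-/- cells stably complemented with human TDP1 were seeded at 400 cells/well in medium containing 20 nM camptothecin, exposed to pin-transferred compounds, and grown at 37 °C for at least 48 hr. Viability was read as ATP luminescence.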
# On the % scale 0 is the no-effect control and ±100 the full control effect; potency means the concentration at half of the fitted maximal effect; tags describe the fitted curve by direction and shape.
Structure (SMILES),Potency,"activity change, negative = growth inhibition"
Cc1cc2ccc(Cl)nc2nc1C,inactive,
C/C(=C\c1ccccc1)CN1CCN(C(C)C)C(CCO)C1 (stereo unspecified),inactive,
Cc1ccccc1C(=O)NC(=S)Nc1sc2c(c1C#N)CCCC2,inactive,
CC(C)Sc1nc2sccc2c(=O)n1-c1ccccc1,"inconclusive [inhibitor, single point]",
CCOc1ccc(S(=O)(=O)c2c(C(=O)c3ccccc3)cnc3cc4c(cc23)OCCO4)cc1,"inconclusive [inhibitor, partial curve]",
COc1cc(OC)c2c(c1C(CCN1CCOCC1)c1ccc(N(C)C)cc1)OC(=O)CC2c1ccc(N(C)C)cc1 (stereo unspecified),active: 16.4 µM,
COc1ccc(-c2cc(C(=O)Nc3cc(S(N)(=O)=O)ccc3C)c3ccccc3n2)cc1OC,"inconclusive [inhibitor, single point]",
O=C(Cc1ccccc1)N1CCN=C1SCc1ccc([N+](=O)[O-])cc1,"inconclusive [inhibitor, single point]",
Clc1cccc(Cl)c1COc1ccccc1CNn1cnnc1,"inconclusive [inhibitor, single point]",
Cc1ccc2c(c1)C(=O)N1[C@H]3c4cc(C)ccc4OC[C@@H]3[C@H](c3ccccc3)[C@]1(C)C(=O)N2,active: 11.6 µM,
O=C(Oc1ccc(-n2cnnn2)cc1)c1ccccc1,inactive,
Cc1csc(N(C(=O)c2cccc(S(=O)(=O)N3CCCC3)c2)c2ccccc2)n1,active: 20.6 µM,
O=C(CSc1nc2ccccc2nc1N1CCCC1)Nc1ccc(Cl)cc1,"inconclusive [inhibitor, partial curve]",
CCN(CC)c1ccc(NC(=O)CN2C(=O)c3cccnc3Oc3ccc(Cl)cc32)c(C)c1,active: 9.2 µM,
Cn1nc([N+](=O)[O-])nc1Sc1nnnn1-c1ccc(C(=O)O)cc1,inactive,
Cc1cc(C)nc(Oc2ccc([N+](=O)[O-])cc2)n1,inactive,
Cc1ccc(S(=O)(=O)Nc2ccccc2C(=O)OC(C)C(=O)Nc2ccc3ccccc3c2)cc1[N+](=O)[O-] (stereo unspecified),"inconclusive [inhibitor, partial curve, poor fit]",
O=C(Nc1ccccc1)Nc1ccc(Br)cc1F,active: 14.6 µM,
CC(Nc1oc(-c2ccc(COc3ccc(Cl)cc3)o2)nc1C#N)c1ccccc1 (stereo unspecified),"inconclusive [inhibitor, single point]",
CCC1CCc2sc(C(=O)NCC(c3ccc(OC)cc3)N3CCOCC3)cc2C1 (stereo unspecified),active: 23.1 µM,
Cc1ccccc1-n1c(=O)/c(=C\c2ccco2)s/c1=C(/C#N)C(=O)Nc1ccccc1,inactive,
CCc1cccc(NS(=O)(=O)c2cc(-c3cnc(C)o3)ccc2OC)c1,"inconclusive [inhibitor, single point]",
CC(=O)Nc1ccc(C=Cc2ccc([N+](=O)[O-])cc2)cc1,"inconclusive [inhibitor, full curve]",

Structure (SMILES),Potency,"activity change, negative = growth inhibition"
C[N+]1(C)CCCC(OC(=O)C(O)(c2ccccc2)c2ccccc2)C1 (stereo unspecified),inactive,
CCc1ccccc1NS(=O)(=O)c1cc(Br)cc2c1N(C(=O)C1CC1)CC2,active: 16.4 µM,
O=C(NC1CCC(O)CC1)c1ccc(-c2ccc(Cl)cc2)o1 (stereo unspecified),"inconclusive [inhibitor, single point]",
COc1cccc(Cn2c(NCc3ccco3)nc3c2c(=O)n(C)c(=O)n3C)c1,active: 1.84 µM,
CCCOc1ccc(C2NC(=S)NC(C)=C2C(=O)c2ccccc2)cc1OC (stereo unspecified),"inconclusive [inhibitor, single point]",
Cn1c(SCC(=O)N2CCCC2=O)nc2ccccc2c1=O,inactive,
Cc1cccc(/C=C2/S/C(=N/N=C3\CC4CCC3(C)C4(C)C)NC2=O)c1 (stereo unspecified),"inconclusive [inhibitor, single point]",
Cn1nc(C(F)(F)F)c(-c2ccc(Br)cc2)c1NC(=O)c1cccnc1,"inconclusive [inhibitor, single point]",
CC1CN(C(=O)CCC(=O)NC(C)c2ccccc2)c2cc(Cl)ccc2O1 (stereo unspecified),"inconclusive [inhibitor, single point]",
COc1ccc(C(=O)Nc2ccc3ccccc3c2)c(OC)c1,"inconclusive [inhibitor, partial curve, poor fit]",
COc1ccc(C(=O)Nc2nc3n(n2)C(c2ccc(F)cc2)C=C(c2ccc(Cl)cc2)N3)cc1 (stereo unspecified),active: 14.6 µM,
COc1ccc(N2CCN(C(=O)CSc3nc4nc(C)cc(C)n4n3)CC2)cc1,,inconclusive: -31% [inhibitor]
COc1ccc(C(=O)Nn2c(C)nc3ccccc3c2=O)cc1Br,inactive,
COC(=O)c1ccc(COC(=O)C2CCN(S(=O)(=O)c3ccc(C)c(C)c3)CC2)o1,inactive,
Cc1ccc(N(C(C)C(=O)Nc2ccc(S(=O)(=O)N3CCOCC3)cc2)S(C)(=O)=O)cc1 (stereo unspecified),"inconclusive [inhibitor, single point]",
CCc1cc2c3c([nH]c2cc1S(=O)(=O)NCCCOC)CC(C)(C)CC3=O,"inconclusive [inhibitor, single point]",
COc1ccc(C(=O)Nc2nc(CC(=O)NCc3c(F)cccc3F)cs2)cc1,"inconclusive [inhibitor, single point]",
CCn1c(C(=O)O)c(S(=O)(=O)c2ccc(Cl)cc2)c2ccccc21,inactive,
N#C/C(=C1\SCC(c2ccccc2Cl)S1)n1ccnc1 (stereo unspecified),"inconclusive [inhibitor, single point]",
CC(C)(C)c1ccc(-n2ncc3c2CCCC3NC(=O)c2cnccn2)cc1 (stereo unspecified),"inconclusive [inhibitor, single point]",
CN(C(=O)COC(=O)/C=C/c1ccc(C(F)(F)F)cc1)C1CCS(=O)(=O)C1 (stereo unspecified),"inconclusive [inhibitor, partial curve]",
COc1cccc(N2C(=O)CN(Cc3ccc(OC)c(OC)c3)C2=S)c1,"inconclusive [inhibitor, single point]",
O=C(COc1ccccc1)N1N=C(c2cccnc2)CC1(O)C(F)(F)F (stereo unspecified),inactive,

# Source: PubChem BioAssay AID686979 (National Center for Advancing Translational Sciences (NCATS), 2013)
